Hit rate of the full screen: of about 230,000 compounds, about 3,600 (1.6%) were called active. Inconclusive means that the source gave no clear call. Such entries were picked first, then a sample of the others. Calls follow the shape of the dose curve; as a rule, active = well fitted inhibition curve with a large enough effect (not every such curve was filed as active); inconclusive = small, poorly fitted or top-dose-only effect, or another doubt; inactive = no such curve, though single readings can be large or run the other way. Potencies of inconclusive entries are doubtful fits and often do not repeat.
The compounds below were run against Lysine-specific demethylase 4E (Homo sapiens) (UniProt B2RXH2) (assay: qHTS Assay for Inhibitors of Human Jumonji Domain Containing 2E (JMJD2E)). Conditions: JMJD2E catalytic domain, FDH-coupled NADH fluorescence (FDH is formaldehyde dehydrogenase); series mostly up to 57.1 µM.
Chain of UniProt B2RXH2 (B2RXH2 whole entry, looked up, the tested form may be a part): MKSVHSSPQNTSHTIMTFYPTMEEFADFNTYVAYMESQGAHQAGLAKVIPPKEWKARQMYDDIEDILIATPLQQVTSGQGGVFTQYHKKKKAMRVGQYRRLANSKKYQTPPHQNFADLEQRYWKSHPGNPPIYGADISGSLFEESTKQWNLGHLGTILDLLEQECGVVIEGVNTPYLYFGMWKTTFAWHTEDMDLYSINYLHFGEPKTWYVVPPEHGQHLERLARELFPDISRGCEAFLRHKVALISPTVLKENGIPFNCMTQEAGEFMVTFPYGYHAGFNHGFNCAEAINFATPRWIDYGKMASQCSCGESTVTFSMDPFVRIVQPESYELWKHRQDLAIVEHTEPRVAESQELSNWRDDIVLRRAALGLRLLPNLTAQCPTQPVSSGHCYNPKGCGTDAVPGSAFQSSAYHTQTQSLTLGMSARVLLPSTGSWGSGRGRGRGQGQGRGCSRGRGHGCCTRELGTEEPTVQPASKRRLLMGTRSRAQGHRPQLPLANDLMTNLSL
Also: nearly all actives have a fitted effect of over 50% in size.
Potency is read from the fitted curve at half-maximal effect; tags tell the direction and shape of the fitted curve.

| SMILES | Potency |
| --- | --- |
| COC(=O)c1ccc(NC(=O)C(=O)N2CCN(C(=S)Nc3ccc(C)cc3)CC2)cc1 | inconclusive: 39.8 µM [inhibitor, single point] |
| COc1ccc(Nc2nnc(-c3ccccc3)c3ccccc23)cc1C(=O)N1CCCCC1 | inconclusive: 39.8 µM [inhibitor, single point] |
| O=C(CCC1CCCN(C(=O)c2ccc3cc[nH]c3c2)C1)N1CCN(c2ccccn2)CC1 (centres undefined) | inconclusive: 35.5 µM [inhibitor, single point] |
| C=C(C)CSc1nc2nc(C)c(Br)cc2[nH]1 | inactive |
| CCn1c2ccccc2c2cc(NC(=O)c3cc(OC)cc(OC)c3)ccc21 | inconclusive: 35.5 µM [inhibitor, single point] |
| O=C1NC2(C=Cc3c(ccc4ccccc34)O2)Oc2ccccc21 (centres undefined) | inconclusive: 28.2 µM [inhibitor, partial curve] |
| COC(=O)C1=C(C)OC(N)=C(C#N)C1c1cc2cc(C)ccc2nc1Cl (centres undefined) | inconclusive: 35.5 µM [inhibitor, single point] |
| O=C(O)c1cccc(Cn2c(Cl)c(/C=N/NC(=O)c3cccc(O)c3)sc2=O)c1 | inactive |
| CC(c1ccccc1)N1CCC(CNC(=S)Nc2cccc(Cl)c2)C1 (centres undefined) | inconclusive: 35.5 µM [inhibitor, single point] |
| COc1cc2cc(CN(Cc3cccnc3)C(=O)Nc3ccccc3)c(=O)[nH]c2cc1OC | inconclusive: 31.6 µM [inhibitor, partial curve] |
| C=CCOc1c2ccc(C(=O)NCCc3ccc(C)cc3)cc2nn1C | inconclusive: 25.1 µM [inhibitor, partial curve] |
| CC(C)CCNc1nc2c(cc1C#N)COC(C)(C)C2 | inconclusive: 31.6 µM [inhibitor, partial curve] |
| CCOC(=O)c1[nH]c2ccc(Cl)cc2c1NC(=O)/C=C/c1ccc2c(c1)OCO2 | inconclusive: 5.62 µM [inhibitor, single point] |
| O=c1c2ccccc2nc(SCc2cc(=O)n3ccsc3n2)n1CCCO | inconclusive: 25.1 µM [inhibitor, single point] |
| Cc1noc2c1C(c1ccc(N(C)C)cc1)C1=C(CC(C)(C)CC1=O)N2 (centres undefined) | inconclusive: 10 µM [inhibitor, partial curve] |
| Cc1[nH]c2c(C)cccc2c1CCNC(=O)c1ccc2c(c1[N+](=O)[O-])C(=O)c1ccccc1C2=O | inactive |
| COc1cccc(-c2cc3nc(-c4ccccc4)cc(N4CCC5(CC4)OCCO5)n3n2)c1 | inconclusive: 28.2 µM [inhibitor, partial curve] |
| CC(=O)C1=NOC(CNc2ncc(C(F)(F)F)cc2Cl)C1 (centres undefined) | inactive |
| Clc1ccc(-c2nnc3sc(-c4ccc(Br)o4)nn23)cc1 | inconclusive: 35.5 µM [inhibitor, single point] |
| Cc1ccc(C(=O)O/N=C2\CCSc3ccc(C)cc32)cc1 | inactive |
| Cc1cc(N2CCOCC2)nc2ccc(NC(=S)N3CCN(Cc4ccccc4)CC3)cc12 | inconclusive: 25.1 µM [inhibitor, partial curve] |
| CCCOc1cc(N(CC)CC)ccc1/C=C(/C#N)c1nc2ccc(C)cc2[nH]1 | inconclusive: 28.2 µM [inhibitor, partial curve] |
| CCOC(=O)C1=C(O)C(=O)N(CCCn2ccnc2)C1c1ccc(OC)cc1 (centres undefined) | inactive |

| SMILES | Potency |
| --- | --- |
| COC(=O)C1=C(Nc2ccc(OC)cc2)C=C(C)C(C(=O)OC)C1c1ccc(C)cc1 (centres undefined) | inconclusive: 28.2 µM [inhibitor, single point] |
| O=C(Nc1cccc(F)c1)/C(=C\c1cccnc1)NC(=O)c1ccco1 | inactive |
| CC1CC(C)CN(CC(O)COCCOc2ccc(Br)cc2)C1 (centres undefined) | inactive |
| Cc1ccc(/C=C2\SC(=S)N(CC3CCCO3)C2=O)o1 (centres undefined) | inconclusive: 17.8 µM [inhibitor, partial curve] |
| Cc1cc2nc(/C(C#N)=C/c3ccncc3)[nH]c2cc1C | inconclusive: 25.1 µM [inhibitor, single point] |
| O=C(CN(c1ccc(Cl)cc1)S(=O)(=O)c1ccc(Cl)c([N+](=O)[O-])c1)NCCc1ccc(F)cc1 | inactive |
| CN(Cc1cc2ccccc2[nH]c1=O)C(=O)C1CCCCC1 | inconclusive: 28.2 µM [inhibitor, single point] |
| Cc1cc(C)c(S(=O)(=O)NC(C)C)c(C)c1-n1cnnn1 | inactive |
| CCOC(=O)CSCC(NC(=O)OC(C)(C)C)C(=O)OCC (centres undefined) | inactive |
| Cc1cc(C)n2nc(-c3sccc3-n3cccc3)cc2n1 | inconclusive: 39.8 µM [inhibitor, single point] |
| Cc1cc(C(=O)CSc2ncccn2)c(C)n1Cc1ccco1 | inconclusive: 39.8 µM [inhibitor, single point] |
| CC1(C)COC(c2cccc(C3=NC(C)(C)CO3)n2)=N1 | inconclusive: 39.8 µM [inhibitor, single point] |
| CC(C)NC(=O)COc1ccc(OCc2ccccc2)cc1 | inactive |
| COCCNC(=O)c1cc2c(=O)n(C)c3ccccc3c2n1C | inconclusive: 31.6 µM [inhibitor, partial curve] |
| CC(Sc1nc2ccccc2s1)C(=O)NC1CCCc2ccccc21 (centres undefined) | inactive |
| CCOCCCn1c(C)nc2c(c1=O)c1nc3ccccc3nc1n2CCC1=CCCCC1 | inconclusive: 28.2 µM [inhibitor, partial curve] |
| COCCSc1nc2sc3c(c2c(=O)n1-c1ccccc1)CCN(C)C3 | inconclusive: 25.1 µM [inhibitor, partial curve] |
| Cc1ccc(S(=O)(=O)Nc2cc(=O)[nH]c(SCC(=O)Nc3ccccc3Cl)n2)cc1 | inactive |
| CCOC(=O)CSc1n[nH]c(NC(=O)NC(C)C)n1 | inactive |
| COc1cc(/C=C2\SC(c3ccc(C)cc3)=NC2=O)cc(OC)c1O | inconclusive: 12.6 µM [inhibitor, partial curve] |
| CCOC(=O)c1cc2c(ccn2C)n1CC(=O)N1CCCC(C)C1 (centres undefined) | inconclusive: 39.8 µM [inhibitor, single point] |
| Cc1nc(NCCO)c2nc(-c3ccccc3)n(CC3CCN(C)CC3)c2n1 | inconclusive: 31.6 µM [inhibitor, partial curve] |
| COc1ccc(-c2ccc(F)cc2)cc1[C@H]1[C@H]2C=CC[C@@H](C)[C@@H]2C(=O)N1Cc1ccccc1 | inconclusive: 39.8 µM [inhibitor, single point] |

| SMILES | Potency |
| --- | --- |
| CCc1cc(-c2n[nH]c(C)c2-c2nc3ccccc3n2C)c(O)cc1O | inconclusive: 22.4 µM [inhibitor, single point] |
| O=C1OC(c2ccc3c(c2)OCO3)N(C(=O)c2ccc(Cl)c(Cl)c2)c2ccccc21 (centres undefined) | inconclusive: 35.5 µM [inhibitor, single point] |
| Cc1nc([N+](=O)[O-])cn1-c1nc2ccccn2c1[N+](=O)[O-] | inactive |
| COc1cccc(C2CC(c3ccc(NS(C)(=O)=O)cc3)=NN2C(=O)c2ccccc2)c1OC (centres undefined) | inconclusive: 39.8 µM [inhibitor, single point] |
| COc1ccccc1-n1c(C)cc(/C=C2/C(=N)N3C(=NC2=O)SN=C3S(C)(=O)=O)c1C | inconclusive: 31.6 µM [inhibitor, single point] |
| CC1=C(C(=O)Nc2ccccn2)C(c2ccc(Br)cc2)NC(=S)N1 (centres undefined) | inactive |
| COCC(C)NC(=O)NC1(C(F)(F)F)Oc2ccc(Cl)cc2O1 (centres undefined) | inconclusive: 39.8 µM [inhibitor, single point] |
| Cc1cccc(CNc2ncnc3ccc(-c4cccnc4)cc23)c1 | inconclusive: 11.2 µM [inhibitor, partial curve] |
| CC1CCN(c2nc(-c3cccnc3)nc3scc(-c4ccccc4)c23)CC1 | inconclusive: 31.6 µM [inhibitor, partial curve] |
| O=C(Nc1ncc(Cc2cccc(Cl)c2)s1)c1cccs1 | inconclusive: 22.4 µM [inhibitor, single point] |
| Oc1ccccc1/C=N/c1c(-c2ccco2)nc2ccccn12 | inconclusive: 22.4 µM [inhibitor, partial curve] |
| COc1ccc2c(c1)cc(C(=O)O)n2C | inconclusive: 28.2 µM [inhibitor, partial curve] |
| O=C(COc1ccccc1[N+](=O)[O-])N/N=C/c1ccccn1 | inactive |
| O=C(CN(C(=O)Cn1nnc(-c2ccc(F)cc2)n1)C1CCCC1)NC1CCCC1 | inconclusive: 35.5 µM [inhibitor, single point] |
| COCCCNC(=S)Nc1ccc2c(c1)OCCO2 | inactive |
| S=c1nc(-c2ccc(Br)cc2)[nH]c2ccccc12 | inactive |
| O=C(Oc1cccc2cccnc12)c1ccco1 | inconclusive: 25.1 µM [inhibitor, single point] |
| CC(NC(=O)c1ccco1)C(c1cccs1)N1CCN(c2ccc(F)cc2)CC1 (centres undefined) | inconclusive: 39.8 µM [inhibitor, single point] |
| Cc1ccnc(N2CCC(C(=O)NCc3ccc(F)cc3)CC2)n1 | inconclusive: 31.6 µM [inhibitor, single point] |
| O=C1c2ccc3c4c(ccc(c24)C(=O)N1NC(=O)C(F)(F)F)CC3 | inconclusive: 31.6 µM [inhibitor, partial curve] |
| CC(C)CNC(=O)c1ccccc1NC(=O)CSCc1ccccc1 | inconclusive: 35.5 µM [inhibitor, single point] |
| CCOC(=O)c1cc2c(=O)[nH]ccc2nc1C(F)(F)F | inconclusive: 28.2 µM [inhibitor, partial curve] |
| Cc1cc(C)c2cc(C=O)c(Cl)nc2c1 | inconclusive: 28.2 µM [inhibitor, partial curve] |
